Measured values as given in the supplement of paper PMC10369915.
Some of the results follow. Rule as the data show it: active = 3.2 or more and inactive = the rest. Most of these values are background signal.

Experiments:
Assay in all cases: enrichment score (SH2-bound / input frequency) (ratio); bacterial display of known human phosphotyrosine sites (pTyr-Var adds point mutants) read by sequencing; higher = stronger binding; tyrosines were phosphorylated by kinases first
Settings in all cases: peptide library: pTyr-Var
[1] = biological target: SHP2 C-SH2 domain E139D
[2] = biological target: SHP2 C-SH2 domain wild-type
[3] = biological target: SHP2 N-SH2 domain L43F
[4] = biological target: SHP2 N-SH2 domain T42A
[5] = biological target: SHP2 N-SH2 domain T52S
[6] = biological target: SHP2 N-SH2 domain wild-type
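Also: displayed peptides selected on beads carrying the immobilized SH2 domain, with library peptides lacking any tyrosine serving as negative controls.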

| Binder | enrichment score [1] | enrichment score [2] | enrichment score [3] | enrichment score [4] | enrichment score [5] | enrichment score [6] |
| --- | --- | --- | --- | --- | --- | --- |
| SLTGAYASGIP [POM121C_Y378_T379A] | inactive: 0.711 | inactive: 0.572 | inactive: 0.75 | inactive: 0.557 | inactive: 0.607 | inactive: 0.656 |
| QITQVYGFFDE [PPP2CA_Y127_YF] | inactive: 1.53 | inactive: 1.27 | inactive: 1.44 | inactive: 1.2 | inactive: 1.44 | inactive: 1.97 |
| RDLRTYIMPAH [PNMT_Y256] | inactive: 1.14 | inactive: 1 | inactive: 1.62 | inactive: 1.9 | inactive: 1.78 | inactive: 1.05 |
| NIKKEYTKMVQ [PMS2_Y181_A182T] | inactive: 0.804 | inactive: 0.881 | inactive: 0.614 | inactive: 0.699 | inactive: 0.783 | inactive: 0.626 |
| QITQVCGFYDE [PPP2CA_Y127_Y127C] | inactive: 0.768 | inactive: 0.856 | inactive: 0.581 | inactive: 0.743 | inactive: 0.429 | inactive: 1.19 |
| EELLHYAIVTP [POC5_Y37] | inactive: 1.1 | inactive: 2.36 | inactive: 2.91 | inactive: 2.85 | active: 3.35 | inactive: 1.18 |
| KLIETYFSKNF [PLP1_Y50_YF] | inactive: 1.18 | inactive: 0.993 | inactive: 0.956 | inactive: 0.758 | inactive: 0.853 | inactive: 0.828 |
| LSGVIYVILRK [PMP22_Y153] | inactive: 0.862 | inactive: 0.767 | inactive: 0.548 | inactive: 0.968 | inactive: 0.631 | inactive: 0.723 |
| DEDFLCREELA [POR_Y575_Y575C_YF] | inactive: 0.453 | inactive: 0.691 | inactive: 0.51 | inactive: 0.714 | inactive: 0.504 | inactive: 0.608 |
| DTNIAYWLHPR [POMT1_Y581] | inactive: 0.784 | inactive: 0.823 | inactive: 0.824 | inactive: 1.11 | inactive: 0.847 | inactive: 0.903 |
| ETLLYYGCRRS [POR_Y564] | inactive: 0.209 | inactive: 0.282 | inactive: 0.377 | inactive: 0.219 | inactive: 0.265 | inactive: 0.433 |
| VVEDGYEFFAK [PPP1CB_Y254] | inactive: 0.71 | inactive: 0.622 | inactive: 0.587 | inactive: 0.623 | inactive: 0.723 | inactive: 0.51 |
| QITQVCGFFDE [PPP2CA_Y127_Y127C_YF] | inactive: 1.52 | inactive: 1.33 | inactive: 1.06 | inactive: 1.04 | inactive: 1.41 | inactive: 1.49 |
| LLKANYELLNA [POLR3A_Y714_K713N] | inactive: 1.13 | inactive: 1.12 | inactive: 0.982 | inactive: 1.26 | inactive: 1.09 | inactive: 1.24 |
| NIKKEYAKMVQ [PMS2_Y181] | inactive: 0.651 | inactive: 0.623 | inactive: 0.668 | inactive: 0.632 | inactive: 0.645 | inactive: 0.717 |
| GRMLQYLTVND [PPFIBP2_Y663_R658G] | inactive: 1.32 | inactive: 1.09 | inactive: 3.02 | active: 3.8 | active: 3.65 | inactive: 1.11 |
| KRRGPYEMSPS [PLPP7_Y172_T174M] | inactive: 0.281 | inactive: 0.192 | inactive: 0.237 | inactive: 0.252 | inactive: 0.192 | inactive: 0.237 |
| RSDEDYLCREE [POR_Y573_Y575C] | inactive: 0.721 | inactive: 0.761 | inactive: 0.823 | inactive: 0.48 | inactive: 0.7 | inactive: 0.758 |
| QSHKVYFQHLL [POR_Y604_V605F] | inactive: 1.31 | inactive: 0.975 | inactive: 1.15 | inactive: 0.68 | inactive: 0.943 | inactive: 1.09 |

| Binder | enrichment score [1] | enrichment score [2] | enrichment score [3] | enrichment score [4] | enrichment score [5] | enrichment score [6] |
| --- | --- | --- | --- | --- | --- | --- |
| DFPGNYSGYDD [POLR1C_Y33] | inactive: 0.666 | inactive: 0.789 | inactive: 0.626 | inactive: 0.876 | inactive: 0.744 | inactive: 0.941 |
| HITQVYGFYDE [PPP2CA_Y127_Q122H] | inactive: 1.2 | inactive: 1.45 | inactive: 1.13 | inactive: 1.26 | inactive: 1.2 | inactive: 1.93 |
| LNTFHYAGVSA [POLR2A_Y1109] | inactive: 1.07 | inactive: 1.11 | inactive: 0.896 | inactive: 1.24 | inactive: 0.999 | inactive: 1.24 |
| DVRQEYSGMIL [PLXND1_Y616_P617S] | inactive: 0.702 | inactive: 0.557 | inactive: 0.503 | inactive: 0.685 | inactive: 0.538 | inactive: 0.862 |
| PKFHSYVSLPF [PLXNA2_Y293] | inactive: 1.55 | inactive: 1.76 | inactive: 1.64 | active: 3.86 | inactive: 1.35 | inactive: 0.99 |
| ISKKHYAGLLF [POLD1_Y809_R808H] | inactive: 2.87 | active: 5.39 | inactive: 2.65 | active: 5.2 | inactive: 3.16 | inactive: 1.92 |
| SQPASYQRRLL [PPIG_Y320] | inactive: 0.325 | inactive: 0.247 | inactive: 0.352 | inactive: 0.298 | inactive: 0.278 | inactive: 0.428 |
| ECIEFYELDKK [PMM2_Y145_R141C] | inactive: 0.827 | inactive: 1.1 | inactive: 0.854 | inactive: 0.873 | inactive: 0.8 | inactive: 1.06 |
| ISKKRYAGLLF [POLD1_Y809] | inactive: 0.568 | inactive: 0.619 | inactive: 0.595 | inactive: 1.2 | inactive: 0.705 | inactive: 0.494 |
| NGLVACKDGKL [PMM2_Y76_Y76C] | inactive: 0.689 | inactive: 0.561 | inactive: 0.567 | inactive: 0.501 | inactive: 0.611 | inactive: 0.653 |
| ERIELYELDKK [PMM2_Y145_F144L] | inactive: 0.621 | inactive: 0.641 | inactive: 0.772 | inactive: 0.549 | inactive: 0.663 | inactive: 0.784 |
| LRGVIYVILRK [PMP22_Y153_S149R] | inactive: 0.43 | inactive: 0.268 | inactive: 0.226 | inactive: 0.172 | inactive: 0.344 | inactive: 0.255 |
| DTNIAYCLHPR [POMT1_Y581_W582C] | inactive: 0.886 | inactive: 1.38 | inactive: 0.901 | inactive: 1.07 | inactive: 0.984 | inactive: 1.33 |
| FSAPNYCYRCG [PPP2CA_Y265] | inactive: 1.39 | inactive: 1.41 | inactive: 1.37 | inactive: 1.24 | inactive: 1.32 | inactive: 1.25 |
| PMFHSYVSLPF [PLXNA2_Y293_K289M] | inactive: 1.51 | inactive: 1.8 | inactive: 1.67 | active: 4.84 | inactive: 1.57 | inactive: 1.22 |
| SLTGAYTSGIP [POM121C_Y378] | inactive: 0.701 | inactive: 0.718 | inactive: 0.738 | inactive: 0.616 | inactive: 0.796 | inactive: 0.74 |
| ETLLYYGYRRS [POR_Y564_C566Y] | inactive: 0.308 | inactive: 0.208 | inactive: 0.228 | inactive: 0.264 | inactive: 0.287 | inactive: 0.325 |
| KLIETCFSKNF [PLP1_Y50_Y50C_YF] | inactive: 0.863 | inactive: 1.04 | inactive: 0.855 | inactive: 0.786 | inactive: 0.817 | inactive: 1.17 |
